# Test results as given in patent US11178870B2 (priority 2017, dated 2021).
# Key:
# Magnaporthe grisea = format: in vivo; conditions: class of control value, Table 7
# Phytophthora infestans = format: in vivo; conditions: class of control value, Table 7
# [1] = test system: Colletotrichum orbiculare; conditions: 250 ppm spray, 2.5 ml/pot; investigated 6 to 10 days after inoculation
Compound,Test A control value (blast on rice) (Magnaporthe grisea),Test F control value (late blight on tomato) (Phytophthora infestans),Test H control value (anthracnose on cucumber) [1]
CCn1c(-c2c(F)cccc2F)c(-c2ccsc2C)cc(Cl)c1=O [Compound 390],H (H shows the control value more than 50%),L (L shows the control value of 50% or less),L (L shows the control value of 50% or less)
Cc1ccsc1-c1cc(Br)c(=O)n(CC(F)F)c1-c1c(F)cccc1F [Compound 446],H (H shows the control value more than 50%),L (L shows the control value of 50% or less),H (H shows the control value more than 50%)
O=c1c(Br)cc(-n2cc(F)cn2)c(-c2ccc(F)cc2Br)n1CC(F)F [Compound 449],H (H shows the control value more than 50%),L (L shows the control value of 50% or less),H (H shows the control value more than 50%)
